Source: patent US8785600B2, “Anti-GCC antibody molecules and related compositions and methods” (Millennium Pharmaceuticals, Inc., priority 2009, dated 2014)

B1: Abx-338: Human anti-GCC SLAM mAb, IgG1,k; VH SEQ ID NO:50, VL SEQ ID NO:52 (antibody, V domains shown)
VH: QVQLQESGPGLVKPSETLSLTCTVSGGSIRSYYWSWIRQPAGKGLEWIGRIYISGRTTFNPSLKSRVTISVDTSKNQFSLKLSSVTAADTAVYFCARDRYYGYLDYWGQGTLVTVSS
VL: [letters of about 100 residues not shown]STFGQGTRLEIK
B2: Abx-012: Human anti-GCC SLAM mAb, IgG1,k; VH SEQ ID NO:239, VL SEQ ID NO:241 (antibody, V domains shown)
VH: B1 VH with G27A, R30S, S31H, T58S, F59Y, I69V, F94Y, Y100L, Y101T, L104F
VL: [letters of about 100 residues not shown]
B3: Abx-106: Human anti-GCC SLAM mAb, IgG1,k; VH SEQ ID NO:243, VL SEQ ID NO:245 (antibody, V domains shown)
VH: B1 VH with G27A, R30S, S31H, T58S, F59Y, I69V, F94Y, Y100L, Y101T, L104F
VL: [letters of about 100 residues not shown]CSFGQGTKLEIK

What was measured:
[1] = tested on: GCC 20-mer peptides (aa 1-440); experiment: Epitope mapping by peptide array; type: binding, human; conditions: 20-mer peptides with 15 aa overlap, GCC aa 1-440
Description: Multiple strategies were initiated to identify epitopes. Peptide array. 20-mer peptides, with 15 aa overlap were generated, covering the extracellular domain (ECD) into the transmembrane domain of GCC (aa 1-440). Peptides were synthesized and provided as arrays, immobilized on glass slides. Arrays were hybridized with each of the anti-GCC antibodies to determine if linear peptides were sufficient for binding. […] The sequence, […] (SEQ ID NO:225) is spanned by these peptides. A region of overlap among the peptides is […] (SEQ ID NO:314). […] The sequence, […] (SEQ ID NO:226), and the sequence […] (SEQ ID NO:315) overlaps the two peptides.

GCC in HT29-GCC#18 cells = experiment: Inhibition of ST peptide-induced calcium ion flux (cGMP assay); type: cell-based, human; conditions: 50 nM ST
Procedure: Additionally, some antibodies were tested for their ability to inhibit the ST peptide-induced calcium ion flux in GCC-expressing cells. The cGMP assay was performed in HT29-GCC#18 cells in the presence of 50 nM ST in the presence or absence of anti-GCC antibody molecules.

Molecule	Peptides bound in peptide array [1]	Inhibition of ST peptide-induced calcium ion flux (GCC in HT29-GCC#18 cells)
B1	peptides 71 and 72	inhibited
B2	peptides 71 and 72	–
B3	peptides 71 and 72	–

Changes are numbered by the printed parent chain.
